According to patent publication US20230278972A1, “SUBSTITUTED HALOALKYL SULFONANILIDE HERBICIDES” (FMC Corporation, priority 2020, published 2023):

Experiments:
Conditions in all cases: Flood, 250 g ai/ha; visual rating after 13 to 15 days; scale of 0 to 100 where 0 is no effect and 100 is complete control
[1] = test system: barnyardgrass (Echinochloa crus-galli); experiment: Test B flooded paddy test, barnyardgrass
rice (Oryza sativa) = experiment: Test B flooded paddy test, rice
[2] = test system: sedge, umbrella (small-flower umbrella sedge, Cyperus difformis); experiment: Test B flooded paddy test, sedge, umbrella
[3] = test system: ducksalad (Heteranthera limosa); experiment: Test B flooded paddy test, ducksalad

Structure (SMILES) | Plant response rating, Barnyardgrass [1] | Plant response rating, Rice (rice (Oryza sativa)) | Plant response rating, Sedge, Umbrella [2] | Plant response rating, Ducksalad [3]
Cc1cc(Cl)c(NS(=O)(=O)C(F)(F)F)cc1C1=NOC2(CCCC2)C1 [Compound 204] | 0 | 0 | 0 | 0
Cc1cc(C)c(C2=NOC(C)(C)C2)cc1NS(=O)(=O)C(F)(F)F [Compound 206] | 0 | 0 | 95 | 75
Cc1cc(C)c(N(S(=O)(=O)C(F)(F)F)S(=O)(=O)C(F)(F)F)cc1C1=NOC2(CCCC2)C1 [Compound 208] | 65 | 15 | 98 | 85
CCC1(CC)CC(c2cc(NS(=O)(=O)C(F)(F)F)c(C)cc2C)=NO1 [Compound 209] | 10 | 0 | 95 | 85
Cc1cc(C)c(N(S(=O)(=O)C(F)(F)F)S(=O)(=O)C(F)(F)F)cc1C(=O)N1CCC(F)(F)CC1 [Compound 210] | 10 | 15 | 95 | 65
Cc1cc(F)c(C(=O)N2CCCCC2)cc1NS(=O)(=O)C(F)(F)F [Compound 211] | 15 | 10 | 75 | 80
Cc1cc(F)c(C(=O)N2CCCCC2)cc1N(S(=O)(=O)C(F)(F)F)S(=O)(=O)C(F)(F)F [Compound 212] | 0 | 0 | 0 | 0
Cc1cc(F)c(C(=O)N(C)C)cc1NS(=O)(=O)C(F)(F)F [Compound 215] | 0 | 0 | 0 | 0
Cc1cc(F)c(C(=O)N(C)C)cc1N(S(=O)(=O)C(F)(F)F)S(=O)(=O)C(F)(F)F [Compound 216] | 0 | 0 | 0 | 0
Cc1cc(Cl)c(N(S(=O)(=O)C(F)(F)F)S(=O)(=O)C(F)(F)F)cc1C1=NOC2(CCCCC2)C1 [Compound 217] | 0 | 0 | 80 | 65
CC(=O)OCN(c1cc(C2=NOC3(CCCC3)C2)c(C)cc1C)S(=O)(=O)C(F)(F)F [Compound 218] | 20 | 0 | 90 | 35
CSC(=O)N(c1cc(C2=NOC3(CCCC3)C2)c(C)cc1C)S(=O)(=O)C(F)(F)F [Compound 219] | 55 | 0 | 90 | 30
CC(=O)N(c1cc(C2=NOC3(CCCC3)C2)c(C)cc1C)S(=O)(=O)C(F)(F)F [Compound 220] | 15 | 0 | 95 | 30
Cc1cc(Cl)c(NS(=O)(=O)C(F)(F)F)cc1C1=NOC2(CCCCC2)C1 [Compound 221] | 0 | 0 | 95 | 30
Cc1cc(Cl)c(N(S(=O)(=O)C(F)(F)F)S(=O)(=O)C(F)(F)F)cc1C1=NOC(C)(C)C1 [Compound 222] | 20 | 15 | 95 | 70
Cc1cc(C)c(C(=O)N2CCC3(CCCC3)CC2)cc1NS(=O)(=O)C(F)(F)F [Compound 223] | 0 | 0 | 0 | 0
Cc1cc(Cl)c(NS(=O)(=O)C(F)(F)F)cc1C(=O)N1CCC(Cl)CC1 [Compound 224] | 15 | 0 | 90 | 75
Cc1cc(C)c(C(=O)N2CCC3(CCCC3)C2)cc1NS(=O)(=O)C(F)(F)F [Compound 225] | 20 | 0 | 98 | 75
Cc1cc(C)c(C2=NOC(C)(CCl)C2)cc1NS(=O)(=O)C(F)(F)F (stereo not shown) [Compound 226] | 45 | 10 | 90 | 70
Cc1cc(C)c(N(S(=O)(=O)C(F)(F)F)S(=O)(=O)C(F)(F)F)cc1C1=NOC(C)(CCl)C1 (stereo not shown) [Compound 227] | 0 | 0 | 0 | 0
Cc1cc(C)c(C2=NOC3(CCC3)C2)cc1NS(=O)(=O)C(F)(F)F [Compound 228] | 0 | 0 | 95 | 75
Cc1cc(C)c(C(=O)N2CCC(S(C)(=O)=O)CC2)cc1NS(=O)(=O)C(F)(F)F [Compound 233] | 0 | 0 | 0 | 0
Cc1cc(C)c(C(=O)N2CCC(CC(F)(F)F)CC2)cc1NS(=O)(=O)C(F)(F)F [Compound 234] | 0 | 0 | 0 | 0
Cc1cc(F)c(C(=O)N2CC(C)OC(C)C2)cc1N(S(=O)(=O)C(F)(F)F)S(=O)(=O)C(F)(F)F (stereo not shown) [Compound 235] | 0 | 0 | 55 | 80
Cc1cc(F)c(C(=O)N2CCC(C#N)CC2)cc1NS(=O)(=O)C(F)(F)F [Compound 236] | 0 | 0 | 35 | 50
Cc1cc(F)c(C(=O)N2CCOCC2)cc1N(S(=O)(=O)C(F)(F)F)S(=O)(=O)C(F)(F)F [Compound 237] | 30 | 0 | 65 | 35
Cc1cc(F)c(C(=O)N2CC(C)OC(C)C2)cc1NS(=O)(=O)C(F)(F)F (stereo not shown) [Compound 238] | 20 | 0 | 45 | 85
Cc1cc(F)c(C(=O)N2CCC(C#N)CC2)cc1N(S(=O)(=O)C(F)(F)F)S(=O)(=O)C(F)(F)F [Compound 239] | 0 | 0 | 0 | 0
